Reference: PubChem BioAssay (NCI)
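All cell lines were grown in 96-well plates and treated with compound for 48 hours. Abbreviation: GI50, concentration required for 50% inhibition of growth. TGI marks complete inhibition of growth.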

Test system: NCI-H322M lung
Experiment: DTP human tumour cell line panel, 48 h

Row | SMILES | GI50 | TGI
1 | O=c1nc(-c2ccccc2)cc(-c2cc3ccccc3nc2Cl)[nH]1 | 12.3 µM | 25.3 µM
2 | O=C(NCCCCC(c1ccc(F)cc1)c1ccc(F)cc1)Nc1ccc([N+](=O)[O-])c(C(F)(F)F)c1 | 2.5 µM | 9.09 µM
3 | CC(=O)Nc1cccc(Nc2nc(NCc3ccccc3)c3ccccc3n2)c1 | 2.34 µM | 7.68 µM
